According to PubChem BioAssay AID1468 (National Center for Advancing Translational Sciences (NCATS), 2008):
Screen size: about 280,000 compounds; about 1,100 (0.39%) were called active. The shares of active, inactive and inconclusive entries below differ from those in the screen. The call rests on the fitted dose curve; in most records, active means well fitted inhibition curve with a large enough effect; inconclusive means small, poorly fitted or top-dose-only effect, or effect the other way; inactive means flat fitted curve, though single readings scatter. No potency is given beside an inconclusive call; the fits are too rough.

Molecular target: Microtubule-associated protein tau (Homo sapiens) (UniProt P10636)
Experiment: qHTS for Inhibitors of Tau Fibril Formation, Fluorescence Polarization; further: nearly all actives have a fitted effect of over 55% in size
Settings: K18 P301L tau heparin fibrillization, Alexa594 FP, 6 h; series mostly up to 57.7 µM
How it was run: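 Human K18 P301L fragment (15 uM unlabeled plus 0.24 uM Alexa 594-labeled) in 100 mM sodium acetate pH 7 with compound, aggregation induced by 20 uM heparin for 6 hr at 37 C. ThT (30 uM) added for 1 hr, then Alexa 594 FP read.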
Potency means the concentration at half of the fitted maximal effect; tags describe the fitted curve by direction and shape.

Sequence of UniProt P10636 (P10636 whole entry, looked up): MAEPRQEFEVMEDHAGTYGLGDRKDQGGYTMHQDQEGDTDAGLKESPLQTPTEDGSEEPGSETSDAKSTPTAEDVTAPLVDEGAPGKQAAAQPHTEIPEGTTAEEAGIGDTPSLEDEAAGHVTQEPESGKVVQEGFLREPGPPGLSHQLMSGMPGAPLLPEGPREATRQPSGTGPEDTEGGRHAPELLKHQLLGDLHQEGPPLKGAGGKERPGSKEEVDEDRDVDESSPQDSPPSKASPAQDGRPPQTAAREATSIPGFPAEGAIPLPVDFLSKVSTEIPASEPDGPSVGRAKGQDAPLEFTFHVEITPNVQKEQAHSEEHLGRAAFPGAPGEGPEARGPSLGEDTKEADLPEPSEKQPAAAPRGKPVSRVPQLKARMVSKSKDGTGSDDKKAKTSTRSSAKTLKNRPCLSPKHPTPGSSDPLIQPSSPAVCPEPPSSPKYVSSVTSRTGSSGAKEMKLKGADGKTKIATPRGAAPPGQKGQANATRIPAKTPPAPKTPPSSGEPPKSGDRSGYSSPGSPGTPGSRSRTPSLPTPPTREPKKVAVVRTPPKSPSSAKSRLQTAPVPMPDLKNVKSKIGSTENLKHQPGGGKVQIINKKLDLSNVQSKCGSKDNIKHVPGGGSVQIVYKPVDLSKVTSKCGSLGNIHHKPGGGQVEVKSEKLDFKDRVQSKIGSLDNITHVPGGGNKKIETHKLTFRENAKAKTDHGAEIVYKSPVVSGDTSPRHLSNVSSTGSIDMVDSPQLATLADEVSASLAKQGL

SMILES | Potency
O=S(=O)(c1ccccc1Oc1ccc(Cl)cc1Cl)N1CCCCC1 | inconclusive [inhibitor, partial curve, poor fit]
Cc1cc(Nc2ccccc2)nc(-c2ccccc2O)n1 | active: 28.2 µM
CCOC(=O)c1c(C)[nH]c(C(=O)OCCOc2ccc(Cl)cc2)c1C | inconclusive [inhibitor, partial curve]
COC(=O)c1c(NC(=O)CCCOc2ccc(C(C)(C)C)cc2)sc2c1C(C(=O)OC)CC2 (stereo not drawn) | inconclusive [inhibitor, partial curve]
CCN(CC)CCNC(=S)NC(=O)c1cn(-c2ccccc2)nc1-c1ccc(OC)cc1 | inconclusive [inhibitor, full curve, poor fit]
O=C(N/N=C/c1ccc2c(c1)OCO2)c1cc(-c2ccncc2)nc2ccccc12 | inconclusive [inhibitor, partial curve]
COc1ccc(OCCC(=O)OCC(=O)Nc2ccc(Br)cc2)cc1 | inconclusive [inhibitor, full curve]
O=C(NCc1cccc(F)c1)C1CCCN(C(=O)N2CCOc3ccccc32)C1 (stereo not drawn) | inconclusive [activator, full curve, poor fit]
O=C(COC(=O)c1cccc(S(=O)(=O)N2CCOCC2)c1)Nc1nc(-c2ccccc2Cl)cs1 | inconclusive [inhibitor, partial curve, poor fit]
Cc1ccc(NC(=S)/N=C(\N)Nc2nc(C)c3cc(C)ccc3n2)c(C)c1 | inactive
CCOC(=O)C1CCN(C(=O)CSc2nccc(C)n2)CC1 | inactive
COc1cc(C2NC(=O)c3c(sc4c3CCN(C)C4)N2)cc(Br)c1OC(=O)c1ccc(C)cc1 (stereo not drawn) | inconclusive [inhibitor, single point]
CCOC(=O)C1CCN(C(c2ccc(SC)cc2)c2c(O)cc(C)n(Cc3ccco3)c2=O)CC1 (stereo not drawn) | inconclusive [inhibitor, single point]
CN1CCc2c(sc3c2C(=O)NC(c2ccc(OC(=O)c4ccccc4)cc2)N3)C1 (stereo not drawn) | inconclusive [inhibitor, single point]
Cc1c(Cc2ccccc2)sc(N)c1C(N)=O | inconclusive [inhibitor, single point]
COc1ccccc1CNC(=O)C1CCCN(C(=O)c2cnn(-c3ccc(F)cc3)c2-n2cccc2)C1 (stereo not drawn) | inactive
CCOC(=O)CSc1nc(-c2ccccc2)nc2c1oc1ccccc12 | inconclusive [inhibitor, partial curve]
O=C(CCC(=O)c1cccs1)Nc1nnc(C2CC2)s1 | inactive
COc1cc2c(C(=O)O)c(C)n(CC(C)C)c2c2ccccc12 | inconclusive [activator, partial curve]
c1ccc(-c2cn3c(n2)-c2ccccc2C3)cc1 | inactive
Cc1ccc2c(c1)C(=O)OC(C(=O)Nc1ncc(Cc3ccc(C(C)C)cc3)s1)C2 (stereo not drawn) | inactive
O=C(C1CCCN1S(=O)(=O)c1cccc2nsnc12)N1CCCCC1 (stereo not drawn) | inconclusive [inhibitor, partial curve]
CC(=O)OCC1OC(n2cnc3c(Cl)nc(Cl)nc32)C(OC(C)=O)C1OC(C)=O (stereo not drawn) | inactive

SMILES | Potency
CCC1CCCCN1CCCNC(=O)c1[nH]c2ccccc2c1Sc1ccc(Cl)cc1 (stereo not drawn) | inconclusive [inhibitor, single point]
Cc1ccc(-c2cn3nc(N4CCCC(C(=O)Nc5ccc(F)cc5)C4)sc3n2)cc1 (stereo not drawn) | inactive
CC1(C)C=Cc2c(c3c(c4c(=O)c(-c5ccc(O)cc5)coc24)OC(C)(C)CC3)O1 | inconclusive [activator, partial curve]
O=C(/C=C/c1cccc([N+](=O)[O-])c1)NC(=S)Nc1ccccc1C(=O)O | inconclusive [inhibitor, partial curve, poor fit]
COc1cccc(C2NC(=O)c3n[nH]c(-c4cccs4)c32)c1 (stereo not drawn) | inactive
CCCCN(CC)CCNC(=O)CCn1cnc2onc(-c3ccc(F)cc3)c2c1=O | inactive
CSc1ccccc1NC(=O)Nc1ccc(Cl)cc1 | inconclusive [inhibitor, single point]
Cc1cc2[nH]c(=O)c(=O)[nH]c2cc1S(=O)(=O)N1CCN(c2cccc(C(F)(F)F)c2)CC1 | inconclusive [inhibitor, partial curve]
Cc1ccc(S(=O)(=O)Nc2cc(=O)[nH]c(SCc3ccccc3Cl)n2)cc1 | inconclusive [inhibitor, full curve, poor fit]
CCc1cc(=O)oc2cc(OCC=C(C)C)ccc12 | inactive
COc1ccc(OC)c(CCNC(=O)CCc2cn(Cc3cc(C)ccc3C)c3ccccc23)c1 | inconclusive [activator, partial curve, poor fit]
O=C(CCCOc1ccccc1)N1CCN(c2ccccc2)CC1 | inactive
CC(C)CNC(=O)NC(=O)COc1c(F)c(F)cc(F)c1F | inconclusive [activator, partial curve, poor fit]
O=C(O)c1ccc(N/N=C/c2ccnc3ccccc23)cc1 | inactive
Oc1ccc(C=Nc2ccc3ncccc3c2)c(O)c1 | inconclusive [inhibitor, full curve]
N#CC1(C#N)C2=C(CCCC2)NC(c2ccccc2)C1(C#N)C#N (stereo not drawn) | inconclusive [inhibitor, partial curve, poor fit]
O=S(=O)(c1ccc2nc(Cc3ccccc3)[nH]c2c1)N1CCOCC1 | inactive
COc1cccc2c1C(=O)c1c(O)c3c(c(O)c1C2=O)C[C@@](O)(C(=O)CO)C[C@@H]3OC1C[C@@H](N)[C@H](O)[C@H](C)O1 (stereo partly drawn) | active: 25.1 µM
COc1cc(/C=N/NC2=NCCCCC2)ccc1O | inconclusive [inhibitor, full curve, poor fit]
COc1cc(/C=C2\SC(c3ccccc3)=NC2=O)cc(Cl)c1O | inconclusive [inhibitor, partial curve]
OCCN(CCO)c1ccc(C(c2ccccc2Cl)c2ccc(N(CCO)CCO)cc2Cl)c(Cl)c1 | inactive
CCc1cccc2c(-c3ccccc3)nc(SCC(=O)Nc3ccccc3OC)nc12 | inconclusive [inhibitor, partial curve, poor fit]
Cc1ccc(CNC(=O)CN2C(=O)CCn3nc(-c4ccccc4)cc32)cc1 | inconclusive [activator, single point]

SMILES | Potency
O=C(N/N=C/c1cccc(O)c1)c1ccc(COc2ccc3c(c2)CCC3)o1 | inconclusive [inhibitor, partial curve]
COc1ccc(CNC(=O)C(C)Sc2nc(-c3ccccc3)cc(C(F)(F)F)n2)cc1 (stereo not drawn) | inconclusive [inhibitor, full curve]
Nc1ccc(C(=O)C(=O)c2ccc(N)cc2)cc1 | inactive
Cc1ccc(-n2c(N)c(C(=O)NCc3cccnc3)sc2=S)cc1 | inactive
CCOC(=O)/C(C#N)=C/c1c[nH]c2ccccc12 | inconclusive [inhibitor, single point]
O=C(OCCCCN1C(=O)c2ccccc2C1=O)c1n[nH]c2ccccc12 | inactive
NS(=O)(=O)c1ccc(NC(=O)c2ccc(-c3ccccc3)cc2)cc1 | inconclusive [inhibitor, single point]
CCCCCn1c(SCC#N)nc2cc(C(=O)NCC3CCCO3)ccc2c1=O (stereo not drawn) | inactive
Cc1ccc(C2Oc3ccccc3C3=C2C(c2cccs2)n2ncnc2N3)cc1 (stereo not drawn) | inconclusive [inhibitor, single point]
O=C(Nc1ccc(Br)c2ccccc12)c1ccc2ccccc2c1O | inconclusive [activator, single point]
Cc1cccc(C)c1NC(=O)CSc1ncc2c(n1)-c1ccc(Cl)cc1N(Cc1ccccc1)S2(=O)=O | inconclusive [inhibitor, partial curve]
CCOC(=O)Cn1c(=O)n(C2CCCCC2)c2nc(-c3ccc(OCC)cc3)nc(C(N)=O)c21 | inactive
Cc1ccc(C)c(N(CC(=O)N/N=C/c2ccc(-c3ccc([N+](=O)[O-])cc3)o2)S(=O)(=O)c2ccccc2)c1 | inactive
COc1cccc(-n2ccnc2SCC(=O)Nc2ccc(Cl)c(Cl)c2)c1 | inconclusive [inhibitor, partial curve]
O=c1c(=O)n(-c2ccccc2)ccn1Cc1cccc(C(F)(F)F)c1 | inconclusive [inhibitor, partial curve]
O=C(Nc1ccccc1)c1cccnc1Nc1ccccc1 | inconclusive [inhibitor, partial curve]
CCOC(=O)N1CC=C2C(C#N)=C(N)C(C#N)(C#N)[C@H](c3ccc(OCC)c(OCC)c3)[C@H]2C1 | inconclusive [inhibitor, single point]
COc1cc(/C=C(/C(=O)c2cccs2)c2nc3ccccc3[nH]2)cc(OC)c1O | inactive
COc1cc(-c2nc3ccccn3c2/N=C/c2cccc(OC)c2O)ccc1O | inconclusive [inhibitor, partial curve]
CCc1ccc(CNC(=O)C2CCCN(c3nnc(C)c4c(C)n(-c5ccc(OC)cc5)nc34)C2)cc1 (stereo not drawn) | inconclusive [inhibitor, single point]
O=C(NCc1ccc(F)cc1)N[C@@H](Cc1ccccc1)C(=O)O | inactive
O=C1COc2ccc(-c3cc(-c4ccc(F)cc4)c4c(n3)-c3cc(Cl)ccc3OC4)cc2N1 | inconclusive [inhibitor, partial curve]
